Experimental data published in PubChem BioAssay AID1347165 (National Center for Advancing Translational Sciences (NCATS), 2019).
Hit rate of the full screen: of about 220,000 compounds, about 5,700 (2.6%) were called active. Inconclusive results, whose numbers are uncertain, are shown with a selection of clear calls. Calls follow the shape of the dose curve; as a rule, active = well fitted inhibition curve with a large enough effect; inconclusive = small, poorly fitted or top-dose-only effect; inactive = no such curve, though single readings can be large or run the other way. Potencies beside an inconclusive call are fits to weak or partial responses and may not hold up.

The compounds below were run against Lysine-specific demethylase 5B (Homo sapiens) (UniProt Q9UGL1) (assay: Primary screen for KDM5B Histone Demethylases FDH-coupled qHTS). Conditions: FDH-coupled NADH fluorescence (FDH is formaldehyde dehydrogenase); activity change, negative = inhibition: at 57.7 µM (top of the series) unless noted.
UniProt Q9UGL1, sequence (Q9UGL1 whole entry, looked up): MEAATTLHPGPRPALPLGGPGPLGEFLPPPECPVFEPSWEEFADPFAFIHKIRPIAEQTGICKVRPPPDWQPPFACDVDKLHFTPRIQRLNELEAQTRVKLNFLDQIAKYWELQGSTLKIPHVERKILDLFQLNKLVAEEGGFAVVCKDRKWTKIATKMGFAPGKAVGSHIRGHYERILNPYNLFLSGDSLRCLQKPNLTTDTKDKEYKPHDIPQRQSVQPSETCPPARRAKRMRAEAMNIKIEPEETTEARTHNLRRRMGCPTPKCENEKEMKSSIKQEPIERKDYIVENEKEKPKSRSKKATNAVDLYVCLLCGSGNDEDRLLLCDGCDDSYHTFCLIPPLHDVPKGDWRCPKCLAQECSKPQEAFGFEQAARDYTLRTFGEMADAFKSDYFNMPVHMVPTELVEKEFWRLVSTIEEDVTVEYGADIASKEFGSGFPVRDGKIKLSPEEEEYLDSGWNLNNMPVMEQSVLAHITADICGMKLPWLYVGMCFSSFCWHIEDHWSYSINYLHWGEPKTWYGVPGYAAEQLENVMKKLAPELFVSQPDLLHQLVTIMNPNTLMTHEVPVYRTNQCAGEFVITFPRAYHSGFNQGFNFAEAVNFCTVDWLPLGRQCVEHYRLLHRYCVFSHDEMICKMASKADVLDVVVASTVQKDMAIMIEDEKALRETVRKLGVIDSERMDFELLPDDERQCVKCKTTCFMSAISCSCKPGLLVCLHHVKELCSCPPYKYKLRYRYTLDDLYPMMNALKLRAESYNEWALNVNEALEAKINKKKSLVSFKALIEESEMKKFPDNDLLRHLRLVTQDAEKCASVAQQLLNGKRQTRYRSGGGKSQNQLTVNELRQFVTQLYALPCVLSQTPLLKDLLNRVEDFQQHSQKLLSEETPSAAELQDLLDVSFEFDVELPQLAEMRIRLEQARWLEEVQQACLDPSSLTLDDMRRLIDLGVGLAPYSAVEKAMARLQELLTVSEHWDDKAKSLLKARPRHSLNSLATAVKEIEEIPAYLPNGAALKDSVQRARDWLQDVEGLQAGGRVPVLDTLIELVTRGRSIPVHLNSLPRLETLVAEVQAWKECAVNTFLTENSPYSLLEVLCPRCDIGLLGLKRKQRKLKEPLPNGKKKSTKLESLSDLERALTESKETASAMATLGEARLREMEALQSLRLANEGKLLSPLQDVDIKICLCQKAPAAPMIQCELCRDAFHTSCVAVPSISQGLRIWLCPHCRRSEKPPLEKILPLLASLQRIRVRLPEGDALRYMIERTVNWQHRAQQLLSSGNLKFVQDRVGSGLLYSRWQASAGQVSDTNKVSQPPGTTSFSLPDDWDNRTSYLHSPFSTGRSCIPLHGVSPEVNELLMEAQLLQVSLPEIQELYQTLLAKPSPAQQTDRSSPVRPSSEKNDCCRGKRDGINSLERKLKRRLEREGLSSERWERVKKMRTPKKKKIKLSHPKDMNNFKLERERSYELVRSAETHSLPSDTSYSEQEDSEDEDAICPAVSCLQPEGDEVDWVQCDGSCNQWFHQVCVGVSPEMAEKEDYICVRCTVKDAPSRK
How it was run: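 KDM5BΔAP (200 nM final) in 50 mM HEPES pH 7.5, 0.01% Tween-20 was preincubated 10 min at RT with compound over a concentration range. Substrate mix (H3K4me3 12.5 µM, α-KG 25 µM, Fe²⁺, ascorbate, NAD⁺, FDH) was added, and NADH fluorescence change over 30 min gave dose-response curves.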
Also: nearly all actives have a fitted effect of over 70% in size.
For activity change, negative = inhibition in this document: 0% is about no effect.
Potency is read from the fitted curve at half-maximal effect; tags tell the direction and shape of the fitted curve.

Row | Structure (SMILES) | Potency | activity change, negative = inhibition
1 | COc1ccc(/C=C/c2nc(C#N)c(N3CCCCC3)o2)cc1OC | inconclusive: 25.1 µM [inhibitor, partial curve, poor fit] | 
2 | O=C(Cc1ccsc1)N1CCN(c2cc(-c3cccs3)[nH]n2)CC1 | inconclusive: 14.1 µM [inhibitor, single point] | 
3 | CN1c2cc(C(=O)N3CCN(c4ccc(F)cc4)CC3)ccc2C(=O)N2CCCCC21 (configuration not stated) | inconclusive: 22.4 µM [inhibitor, partial curve, poor fit] | 
4 | O=C1N(Cc2cccc(F)c2F)CCCC1(O)CNCc1cccc(F)c1 (configuration not stated) |  | inactive: 9.77%
5 | Cc1ccc(-n2c3nc(=O)n(C)c(=O)c-3cc3ccccc32)c(C)c1 | inconclusive: 2.24 µM [inhibitor, full curve, poor fit] | 
6 | CN(C)c1ccc(-c2ccnc(N[C@H]3CO[C@H]4[C@@H]3OC[C@H]4OC(=O)NC3CCCCC3)n2)cc1 | active: 31.6 µM | 
7 | CCSc1nc(-c2ccc(OC)cc2)nc2c1Cc1c(CO)cnc(C)c1O2 | inconclusive: 25.1 µM [inhibitor, partial curve, poor fit] | 
8 | O=c1c2c(nc3cc[nH]n13)CCN(S(=O)(=O)c1ccc3c(c1)CCC3)C2 | inconclusive: 6.31 µM [inhibitor, partial curve, poor fit] | 
9 | COCCn1cnc2ccc(-c3ccc(F)cc3)nc2c1=O | active: 35.5 µM | 
10 | Nc1ccc2nc(CO)[nH]c2c1 | inconclusive: 39.8 µM [inhibitor, partial curve, poor fit] | 
11 | CCCCN(Cc1ccccc1)c1ccc(NS(=O)(=O)c2ccc(C)c(C)c2)cc1C(=O)O |  | inactive: -20%
12 | CCC(=O)Nc1ccc(-c2csc(NC(C)COC)n2)cc1 (configuration not stated) |  | inactive: 4.69%
13 | Cc1ccc2c(C(=O)NCCc3cccnc3)cc(NC(=O)C(C)C)cc2n1 | active: 20 µM | 
14 | COc1cccc(C(=O)NC2CCN(c3cc(-c4ccc(Cl)cc4)[nH]n3)CC2)c1 |  | inactive: -20.3%
15 | O=C(c1ccc2cc[nH]c2c1)N1CCC(Cc2nncn2CC2CC2)C1 (configuration not stated) | inconclusive: 31.6 µM [inhibitor, single point] | 
16 | COc1cccc(CNC(=O)C2CCCN(c3nnc(-n4c(C)ccc4C)s3)C2)c1OC (configuration not stated) | inconclusive: 14.1 µM [inhibitor, partial curve, poor fit] | 
17 | N#Cc1cccc(CN2CCc3nc(C(=O)NCCOc4ccccc4)oc3CC2)c1 | inconclusive: 28.2 µM [inhibitor, partial curve] | 
18 | CCn1cc(C(=O)N2CCC3(CC2)CN(Cc2ccccc2)CC3CO)cn1 (configuration not stated) | inconclusive: 11.2 µM [inhibitor, partial curve, poor fit] | 
19 | Cc1nn2c(N3CCCC3)c3c(nc2c1-c1ccccc1)CCC3 | inconclusive: 31.6 µM [inhibitor, partial curve, poor fit] | 
20 | C#CCNC(=O)N1CCN(c2cccc(Cl)c2)CC1 |  | inactive: 26.2%
21 | COc1cc(C=O)ccc1OCCCCOc1c(C)cc(C)cc1Cl |  | inactive: 0.927%
22 | CCc1cccc(CC)c1NC(=O)CN(C)S(=O)(=O)c1ccc2c(c1)n(C)c(=O)c(=O)n2C | inconclusive: 39.8 µM [inhibitor, single point] | 
23 | CSc1nn(Cc2ccc(F)cc2)c(N(C(C)=O)C(C)=O)c1S(=O)(=O)c1ccccc1 | inconclusive: 25.1 µM [inhibitor, single point] | 

Row | Structure (SMILES) | Potency | activity change, negative = inhibition
24 | Cc1ccc(NC(=O)C(C)N(C)Cc2ccc3c(c2)OCCO3)cc1 (configuration not stated) |  | inactive: -5.49%
25 | O=C(O)C(c1c[nH]c2ccccc12)N1CCN(c2nsc3ccccc23)CC1 (configuration not stated) | inconclusive: 28.2 µM [inhibitor, single point] | 
26 | O=C(c1cccc(Cl)c1)N1CCN(CCCc2ccccc2)CC1 | inconclusive: 11.2 µM [inhibitor, partial curve, poor fit] | 
27 | COc1ccc(OC)c(CCNC(=O)c2nc(-c3ccc(Cl)cc3)n3c2CCCCC3)c1 | inconclusive: 44.7 µM [inhibitor, single point] | 
28 | CC(NC(=O)c1nccnc1N)c1ccc(Cl)cc1 (configuration not stated) | inconclusive: 25.1 µM [inhibitor, partial curve, poor fit] | 
29 | COc1ccc(-c2ccc(CCC(=O)NC3CCS(=O)(=O)C3)o2)cc1 (configuration not stated) | inconclusive: 20 µM [inhibitor, partial curve, poor fit] | 
30 | CCOc1ccc(C2Nc3ccccc3C(=O)N2C2CC2)cc1OC (configuration not stated) |  | inactive: -795%
31 | Cc1c(C)n(Cc2ccc(Cl)cc2)c2ccc(C(=O)N3CCN(c4ccccc4F)CC3)cc12 | inconclusive: 1.58 µM [inhibitor, partial curve, poor fit] | 
32 | COc1ccccc1CN1CCC(C)CC1 | inconclusive: 25.1 µM [inhibitor, partial curve, poor fit] | 
33 | O[C@@H]1[C@@H](Cn2cc(-c3cccnc3)nn2)C[C@@H](NCc2nccs2)[C@@H]1O | inconclusive: 25.1 µM [inhibitor, partial curve, poor fit] | 
34 | O=C(/C(=C/c1ccccc1F)c1nc2ccccc2o1)c1ccccc1 | inconclusive: 31.6 µM [inhibitor, partial curve, poor fit] | 
35 | CCc1nc(-c2c3n(c(=O)n(Cc4cc(F)cc(F)c4)c2=O)CCCC3)no1 |  | inactive: -7.49%
36 | COc1ccc(CNC(=O)C(=O)NCC(c2ccco2)S(=O)(=O)c2ccc(Cl)cc2)cc1 (configuration not stated) |  | inactive: 8.15%
37 | Cc1c(-c2cccc(Cl)c2)nc2ccccc2c1C(=O)NC1CCCCCC1 |  | inactive: -0.963%
38 | CC(C)Cn1nc(C(=O)Nc2nc3c(s2)CN(Cc2ccccc2)CC3)c2ccccc2c1=O | inconclusive: 39.8 µM [inhibitor, single point] | 
39 | O=C(Cc1n[nH]c(=O)[nH]c1=O)N/N=C/CCc1ccccc1 | inconclusive: 31.6 µM [inhibitor, partial curve, poor fit] | 
40 | COc1ccccc1-c1cnc(Nc2ccccc2)c2c1CCO2 | inconclusive: 39.8 µM [inhibitor, partial curve, poor fit] | 
41 | O=c1oc2ccccc2cc1-c1cn2cc(Cc3ccc(F)cc3)sc2n1 | inconclusive: 17.8 µM [inhibitor, partial curve, poor fit] | 
42 | Cc1ccc(OCC(=O)Nc2ccc(OCc3cc(=O)n4c(C)csc4n3)cc2)cc1C | inconclusive: 25.1 µM [inhibitor, single point] | 
43 | COc1ccc2cc(C(=O)NC(C)C(=O)N3CCCC3)c(C)nc2c1 (configuration not stated) | inconclusive: 25.1 µM [inhibitor, partial curve, poor fit] | 
44 | CC(C)c1noc(-c2cn(C3CCN(C(=O)c4ccc(F)cc4Cl)C3)nn2)n1 (configuration not stated) |  | inactive: 40.8%
45 | C[S+](=O)([O-])c1ccc(-c2nccc3c(=O)cc(-c4cccnc4)oc23)cc1 | active: 35.5 µM | 
46 | Cc1occc1C(=O)Nc1nc(CC(=O)Nc2ccc(C(C)C)cc2)cs1 |  | inactive: -3.66%

Row | Structure (SMILES) | Potency | activity change, negative = inhibition
47 | COCCNC(=O)C1CCN(c2nc3ccccc3o2)CC1 |  | inactive: 10.5%
48 | Cc1noc(/C=C\c2ccc(S(=O)(=O)N3CCN(C4CCCCC4)CC3)cc2)c1NC(=O)C1CC1 | inconclusive: 28.2 µM [inhibitor, partial curve, poor fit] | 
49 | Cc1ccccc1Cn1cc(-c2ccncc2)cc1C(=O)N1CCCC1 | inconclusive: 25.1 µM [inhibitor, partial curve] | 
50 | COc1ccccc1CC(=O)N1CCC(Cc2nc(-c3cnccn3)no2)CC1 |  | inactive: 11.6%
51 | CCCCn1c(=O)n(CC(=O)c2cc(C)n(C)c2C)c(=O)c2c1ncn2Cc1ccccc1 |  | inactive: 4.58%
52 | CN(CCC#N)C(=O)Cn1nc(C(=O)O)c2ccccc2c1=O |  | inactive: 15.5%
53 | CCC(CC)C(CNC(=O)c1n[nH]c(=O)c2ccccc12)N1CCOCC1 (configuration not stated) |  | inactive: -6.83%
54 | CC(=O)c1c[nH]c(C(=O)NCC(=O)Nc2cccc3c(=O)[nH][nH]c(=O)c23)c1 | inconclusive: 35.5 µM [inhibitor, single point] | 
55 | Cc1ccc(-n2ncc3c(NCCCn4ccnc4)ncnc32)cc1C | inconclusive: 35.5 µM [inhibitor, single point] | 
56 | COc1ccc(Cl)cc1-c1ccc2c(c1)C(=O)N1CCN(C(=O)[C@@H](O)c3ccccc3)C[C@H]1C(=O)N2 | inconclusive: 15.8 µM [inhibitor, partial curve, poor fit] | 
57 | c1ccc(CCN=C2CCCc3c2[nH]c2ccccc32)cc1 | inconclusive: 39.8 µM [inhibitor, single point] | 
58 | COc1ccccc1N1CCN(C(=O)c2cc3c(=O)n(Cc4cccs4)ccc3nc2C)CC1 | inconclusive: 28.2 µM [inhibitor, partial curve, poor fit] | 
59 | Cc1cc2c(C)cc(=O)[nH]c2cc1NC(=O)CCl | inconclusive: 35.5 µM [inhibitor, partial curve, poor fit] | 
60 | COCCN1Cc2ccc(NCc3ccccc3)nc2C(C)(C(=O)N(C)CCOC)C1 (configuration not stated) | active: 35.5 µM | 
61 | N#C/C(=C/c1csc(-c2ccsc2)n1)C(=O)NC1CC1 |  | inactive: -1.61%
62 | COc1ccc(CNC(=O)CSc2nc3ccc(NC(=O)c4ccccc4F)cc3s2)cc1 |  | inactive: -13.3%
63 | Cc1noc(-c2cccs2)c1C(=O)N1CCC(Cc2ccccc2)CC1 | inconclusive: 14.1 µM [inhibitor, single point] | 
64 | CC(C)c1ccc(C2CC(=O)Nc3cc4c(cc32)OCCO4)cc1 (configuration not stated) | inconclusive: 31.6 µM [inhibitor, single point] | 
65 | O=C1Nc2ccc(-c3cccc(C(F)(F)F)c3)cc2C(=O)N2CCN(C(=O)c3cccc(F)c3)C[C@H]12 |  | inactive: -2.66%
66 | CC(=O)N1CCC(N2CCOc3ccc(C(=O)NCc4ccccc4F)cc3C2)CC1 |  | inactive: -3.37%
67 | CCN1c2cc(C(=O)Nc3ccc(OC)c(Cl)c3)ccc2C(=O)N2CCCC21 (configuration not stated) | inconclusive: 10 µM [inhibitor, partial curve, poor fit] | 
